# Experimental data published in the supplement of paper PMC3334620.
# Over roughly 33,000 sequences, “E-score (-0.5 to 0.5)” has its median near -0.041; the highest 2% begin near 0.37. The list shows a part of the results.
# Target: T1, Ecm22 (UniProt Q05958)
# T1 sequence: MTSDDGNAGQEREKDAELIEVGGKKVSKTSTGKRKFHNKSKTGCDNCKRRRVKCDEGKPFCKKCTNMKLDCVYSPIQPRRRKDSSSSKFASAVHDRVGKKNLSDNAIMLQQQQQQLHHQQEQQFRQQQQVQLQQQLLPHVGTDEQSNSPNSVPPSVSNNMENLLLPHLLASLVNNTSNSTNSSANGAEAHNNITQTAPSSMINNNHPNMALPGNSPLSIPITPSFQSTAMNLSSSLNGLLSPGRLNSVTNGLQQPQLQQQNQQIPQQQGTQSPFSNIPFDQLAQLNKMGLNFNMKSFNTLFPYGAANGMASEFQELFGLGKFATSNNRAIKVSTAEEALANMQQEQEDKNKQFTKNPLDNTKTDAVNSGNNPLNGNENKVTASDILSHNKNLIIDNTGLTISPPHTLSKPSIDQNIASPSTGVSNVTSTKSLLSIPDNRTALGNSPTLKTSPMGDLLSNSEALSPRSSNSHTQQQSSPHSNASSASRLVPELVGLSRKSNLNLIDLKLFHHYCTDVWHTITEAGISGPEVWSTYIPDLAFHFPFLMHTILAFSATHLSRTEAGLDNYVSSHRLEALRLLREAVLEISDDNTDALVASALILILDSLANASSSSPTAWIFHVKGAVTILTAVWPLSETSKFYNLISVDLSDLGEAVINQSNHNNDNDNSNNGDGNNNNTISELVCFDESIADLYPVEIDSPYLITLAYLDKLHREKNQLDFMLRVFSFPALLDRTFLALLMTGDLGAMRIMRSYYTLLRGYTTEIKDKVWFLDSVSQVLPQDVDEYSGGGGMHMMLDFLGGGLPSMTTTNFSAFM
# Experiment: PBM E-score (8-mer binding enrichment) (E-score (-0.5 to 0.5)); higher = stronger / more preferred TF binding; most listed sequences are background and not binding sites
# Conditions: protein concentration: 200 nM; construct: GST-full length
# Protocol: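 Universal 'all 10-mer' protein binding microarrays (Agilent AMADID 015681) probed with GST-tagged S. cerevisiae TFs (full-length or DBD) made by in vitro transcription/translation (PURExpress), about 100-200 nM. Bound TF was detected with fluorescent anti-GST. Each ungapped 8-mer (which stands for itself and its reverse complement) is scored by the PBM enrichment score (E-score), a modified Wilcoxon-Mann-Whitney statistic from -0.5 to +0.5, computed with the Universal PBM Analysis Suite. Scale: above 0.35 generally sequence-specific binding.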
row,Sequence,PBM E-score
1,ACTTAATG,0.183
2,AGCGTTCC,0.2
3,GATTAATC,0.132
4,CTATTGAG,-0.0347
5,CATCCTCG,0.13
6,CCCGGGTC,-0.0589
7,AGCGCGGC,-0.0689
8,CGGGTAAA,0.214
9,CTACTCTA,-0.204
10,GATCTGAC,-0.0452
11,CGATTAAA,0.229
12,ATTTGGTA,-0.113
13,AAGTGGTA,-0.0855
14,ATTTTTGA,-0.259
15,AGGGCTCG,0.245
16,AAGAAATG,-0.0278
17,CCTCACCA,-0.139
18,ACCGAGGG,0.145
19,ACCGAATC,0.236
20,CTGCCACC,-0.176
21,ACAAGCGC,0.0807
22,TGTAGACA,-0.0979
23,CGGCTCAG,0.0851
24,CATGATAA,0.0762
25,CTGTTCTA,-0.154

row,Sequence,PBM E-score
1,ATCGTGTA,0.25
2,CTCGGAAC,0.326
3,ACGCATAG,0.285
4,GCATGTCC,-0.101
5,ACGCATCT,-0.0202
6,CAGTCGCA,0.0819
7,TATTACGA,0.389
8,CCTCGTTC,0.474
9,ATATTGAT,0.0156
10,ATCAAACA,-0.0906
11,AATCCCAA,-0.105
12,CACACCTA,0.0474
13,CGGGGCCA,0.0446
14,CAATTATG,0.0142
15,ACTGGCAT,-0.182
16,ACGCATAT,0.143
17,AGGTACTG,-0.183
18,GGGACCAC,-0.203
19,ATTAGACA,-0.239
20,AAATTAAC,-0.0167
21,AGCCGATG,0.0052
22,ACGGAGAT,0.163
23,TTTCGAAA,0.0262
24,AACAAATT,0.0686
25,CTTTCTTC,-0.0421

row,Sequence,PBM E-score
1,CGATGTAG,-0.0487
2,CTAACGGA,0.0654
3,GGAACATA,0.0849
4,AGAAATAC,0.0624
5,AGGATACG,0.321
6,CTTCAAAC,-0.0586
7,AGCTAGTA,0.101
8,GCGATGAA,0.015
9,AGTATTTA,-0.0192
10,AGCTAGCT,-0.201
11,GAGGAGGC,-0.0805
12,AACACGGT,0.0392
13,CTGAAACA,-0.116
14,ATGGTAGA,-0.0133
15,CTTAAACC,0.0103
16,GACAATCA,-0.0176
17,CCTGTTTA,-0.143
18,CACGTGGC,-0.272
19,CGAGTAAG,0.17
20,GGCCCACA,-0.157
21,GGACCACC,-0.0259
22,ACAAGTGG,-0.222
23,CGATGAAC,0.148
24,CCTCGCGA,0.274
25,AGGCGGTC,-0.012

row,Sequence,PBM E-score
1,ATCCGTAC,0.363
2,ACATGCAA,0.0121
3,GATCTGCC,0.013
4,AAAGAATC,-0.0918
5,CCGTTCCC,0.464
6,GAGCAGCA,-0.0654
7,ACAGCAAT,-0.11
8,ATACGATC,0.457
9,AGAGCTAG,-0.0359
10,CTAGAGGA,-0.357
11,GTAGTCAC,-0.177
12,CGCTACTC,0.0986
13,ACTTCGAT,0.123
14,AAGGGGTG,-0.259
15,GCCTGCAA,-0.0382
16,AGTGTAGC,-0.0827
17,AATGTGCA,-0.0272
18,AAGTTTCC,-0.129
19,TTGCGAAA,0.205
20,GGAGTGCA,0.0316
21,GTAAATAC,0.152
22,AGTGAGCG,-0.0993
23,AAGCAAGC,-0.00208
24,GAAAAGTA,-0.0331
25,AGCATGGG,-0.291

row,Sequence,PBM E-score
1,GAATGAGA,-0.255
2,CTTGGGCA,-0.197
3,GCTCCCCA,-0.0815
4,ATGGCACG,-0.128
5,CAACATGG,-0.18
6,ACCCTGCA,0.00985
7,ATAGATTC,0.00042
8,ATACGTAT,0.374
9,AACGATTA,0.382
10,ATCGGCGA,-0.129
11,GGGACGTA,-0.0009
12,AAAAGTGT,-0.166
13,AATTACCA,-0.123
14,GCCCATAA,-0.142
15,CGCTTACA,0.151
16,GAATCGAC,0.163
17,CTAACCTA,-0.0507
18,GAGACTGA,-0.221
19,CTGTAGCC,-0.238
20,ATTATGTC,0.0663
21,GGGCAGGA,-0.171
22,AAGCTTCC,-0.2
23,TGTAGCAA,-0.103
24,GCTCACCA,-0.237
25,TAGTTTAA,0.115

row,Sequence,PBM E-score
1,AGTGGCCA,-0.14
2,CATGCATG,-0.382
3,AACTCATT,-0.154
4,CTAAGTAG,-0.232
5,AGAATACC,0.066
6,AGTACCGG,-0.102
7,GACCGGGC,0.0834
8,GAGGTCGC,0.0249
9,CGAGACTC,0.235
10,GCGTAGCA,0.0406
11,TAACCCTA,-0.0664
12,ACCGCCGT,0.17
13,GCAATGCC,-0.159
14,CCACGTAA,0.065
15,ACCGGATC,-0.0309
16,GGACAAGA,-0.103
17,ATATTCAA,0.0664
18,CCTAAGAA,-0.0994
19,GTCCCCCA,-0.157
20,CCACTCCG,0.019
21,AAGGTTGG,-0.0277
22,GATTGAGA,-0.0525
23,GTATTGGA,-0.0292
24,AAGCTACG,0.218
25,CTTAGTCA,-0.192

row,Sequence,PBM E-score
1,AACGATAC,0.389
2,GCCGAAAC,0.0737
3,AATTAGAT,0.158
4,GCATCGCA,0.0137
5,GATAGTCC,-0.143
6,GCCATGTA,-0.0931
7,TAATAACA,0.0792
8,ACGATCCA,0.329
9,CAGTAATC,-0.143
10,AGACAAAG,0.0946
11,AACTTTAT,-0.0369
12,ATTTTACG,0.392
13,CGAATGAG,0.109
14,ACTGACAT,-0.124
15,GGCTAAAA,-0.217
16,CCTCTAAC,-0.0433
17,AGACGAGA,0.166
18,ATAGATCC,-0.0425
19,ATAATGGA,-0.193
20,GGCAAGTA,-0.243
21,AATAAAAC,0.0428
22,CATGATTC,-0.106
23,GTCAGAAA,-0.119
24,ACACAACC,0.0118
25,CGTGCAGC,-0.0705

row,Sequence,PBM E-score
1,ATTACTAA,-0.0453
2,GGGGGCCA,-0.188
3,ACCCATTC,-0.0208
4,ATACTATG,0.0425
5,ACATGCTG,0.0658
6,GTATTCCA,0.0764
7,CGAAGTGC,0.197
8,CCTAGGCG,-0.215
9,TTACTAAA,0.152
10,AATTCACA,0.0464
11,GACGGGGC,0.0935
12,CAACGTTA,-0.00116
13,CTACACAC,-0.137
14,CCCGTAGC,0.154
15,AATAAGCG,0.0338
16,CATTTCCG,0.0483
17,ACCCCACA,-0.178
18,AAGGGTGC,-0.309
19,TAGTCTCA,-0.0764
20,CGTTAGGC,0.0897
21,CAAAAAGA,-0.152
22,CCCGCCAG,0.0747
23,CTACGACA,0.347
24,ACCCAGAG,-0.00161
25,CTCGGAGC,0.0833

row,Sequence,PBM E-score
1,AACCTACT,-0.063
2,AGCTCCAA,-0.15
3,CCTGGCAA,-0.235
4,GGCCTCGA,-0.196
5,ATTACCGC,0.0569
6,GTCACTAA,-0.00743
7,GCTTCCCC,-0.098
8,ATCAACCC,0.108
9,AGGCGCGA,-0.00125
10,TCAAGGGA,-0.14
11,GGAGATCC,-0.112
12,TTGCAAAA,0.0789
13,AATGTCTA,-0.126
14,CACCGACC,-0.116
15,CAAGCAAG,-0.0582
16,ACTGCGAT,-0.121
17,AGACCGCA,-0.0494
18,AATGTTAA,-0.238
19,CATTTGGA,-0.138
